# In publication PMC4336329 (PLoS ONE, 2015):
# Out of some 310,000 compounds screened, about 14,000 (4.5%) showed an effect of 50% or more. Effects have a minus sign here. The list shows a part of the results.
# Biological target: human ether-à-go-go-related gene (hERG) potassium channel (human, UniProt Q12809)
# Assay: primary screen, population patch clamp on CHO cells stably expressing hERG
# 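Note: peak tail current of the secondary pulse compared with the same well before compound.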
# human ether-à-go-go-related gene (hERG) potassium channel, sequence (Q12809 whole entry, looked up): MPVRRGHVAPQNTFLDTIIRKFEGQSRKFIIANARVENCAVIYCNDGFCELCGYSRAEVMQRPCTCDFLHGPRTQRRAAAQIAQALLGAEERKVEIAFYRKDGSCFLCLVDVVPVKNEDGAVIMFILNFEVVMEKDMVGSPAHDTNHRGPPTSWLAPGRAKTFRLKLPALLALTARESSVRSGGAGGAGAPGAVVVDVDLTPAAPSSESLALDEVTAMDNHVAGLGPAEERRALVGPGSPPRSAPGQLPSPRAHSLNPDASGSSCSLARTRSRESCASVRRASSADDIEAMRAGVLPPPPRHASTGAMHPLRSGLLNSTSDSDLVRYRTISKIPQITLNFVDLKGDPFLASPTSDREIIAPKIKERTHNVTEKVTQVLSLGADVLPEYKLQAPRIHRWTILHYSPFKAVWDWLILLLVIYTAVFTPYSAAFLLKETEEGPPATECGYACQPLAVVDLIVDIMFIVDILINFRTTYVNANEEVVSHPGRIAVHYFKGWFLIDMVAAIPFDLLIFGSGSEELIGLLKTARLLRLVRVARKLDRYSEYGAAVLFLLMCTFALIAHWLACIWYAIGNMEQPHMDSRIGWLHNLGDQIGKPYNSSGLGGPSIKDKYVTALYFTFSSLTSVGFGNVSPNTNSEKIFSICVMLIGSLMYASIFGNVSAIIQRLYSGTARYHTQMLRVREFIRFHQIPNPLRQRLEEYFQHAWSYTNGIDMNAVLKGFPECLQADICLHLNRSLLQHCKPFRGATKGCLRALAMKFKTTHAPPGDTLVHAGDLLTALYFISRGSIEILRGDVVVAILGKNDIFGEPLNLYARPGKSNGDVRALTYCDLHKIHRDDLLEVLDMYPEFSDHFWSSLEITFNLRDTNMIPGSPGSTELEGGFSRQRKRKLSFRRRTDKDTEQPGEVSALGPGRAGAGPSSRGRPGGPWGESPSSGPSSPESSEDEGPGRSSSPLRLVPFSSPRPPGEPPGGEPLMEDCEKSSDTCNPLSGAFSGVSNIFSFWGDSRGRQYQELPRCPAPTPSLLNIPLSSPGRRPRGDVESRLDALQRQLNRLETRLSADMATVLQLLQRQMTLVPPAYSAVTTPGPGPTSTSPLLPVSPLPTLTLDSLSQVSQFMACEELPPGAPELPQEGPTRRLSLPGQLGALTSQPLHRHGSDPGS
row,SMILES,"hERG current change (%, negative = inhibition) at 10uM [%]"
1,O=C1C2C3CCC(C3)C2C(=O)N1c1ccc2ccccc2c1 (stereo not shown),2.72
2,COc1ccc(C(CNS(=O)(=O)c2ccc(C)cc2)N2CCN(C)CC2)cc1 (stereo not shown),-45.2
3,O=C(NNC(=O)c1ccccn1)c1cccc([N+](=O)[O-])c1,8.7
4,Cc1ccc(S(=O)(=O)N2CCCC2C(=O)NCc2ccccc2Cl)cc1 (stereo not shown),-2.88
5,CCOC(=O)c1[nH]c2cc(OC)c(OC)cc2c1NC(=O)C(C)N1CCN(Cc2ccccc2)CC1 (stereo not shown),-38.6
6,Cc1cc(Nc2ccc(F)c(F)c2)nc(-c2ccccc2O)n1,13.9
7,COCCn1c(Cc2ccccc2)nnc1SCC(=O)Nc1oc(C)c2c(C)n[nH]c(=O)c12,13.8
8,Fc1ccc(NC(=S)N2CCN(c3ccccn3)CC2)cc1Cl,10.7
9,O=C(CCCCCN1C(=O)c2ccccc2C1=O)NCc1ccccn1,14.5
10,COc1ccc(CCNCc2ccc(OCC(=O)N3CCCCC3)c(OC)c2)cc1OC.Cl,0.411
11,Cc1ccc(CNC(=O)C2CCCN(S(=O)(=O)c3cccc4nonc34)C2)cc1 (stereo not shown),16.4
12,CCOC(=O)C1=C(C)Nc2ncnn2C1c1c[nH]c2ccccc12 (stereo not shown),-6.28
13,CCOc1ccccc1N(CC(=O)Nc1ccc(C)cc1)S(C)(=O)=O,2.47
14,S=C(/N=c1/sccn1Cc1ccccc1)NC1CC1,9.15
15,Cc1ccc(CNC(=O)C2CCC(=O)N(CCc3ccccn3)C2)s1 (stereo not shown),2.53
16,C/C=C\C=C/C(=O)Nc1cccc(C2=NOC3(C2)C[C@@H](C(N)=O)N(C(=O)/C=C/CC)C3)c1 (stereo partly shown),-9.11
17,COC(=O)c1sc(S(=O)(=O)N2CCN(c3ccc(OC)cc3)CC2)c(C(=O)OC)c1C,-25
18,COc1ccc(S(=O)(=O)NCc2ccco2)cc1C(=O)N1CCCCC1,-7.43
19,Cc1nnc(SCCN2C(=O)c3ccccc3C2=O)[nH]c1=O,2.37
20,Cn1c(SCC(=O)Nc2ccc(N3CCOCC3)c(Cl)c2)nnc1C(O)c1ccccc1 (stereo not shown),-4.85
21,CCOC(=O)CSc1nnc(Cc2ccccc2)n1-c1ccc(C)cc1,-37.4
22,CCc1ccc(OCC(=O)Nc2ccc3oc(=O)ccc3c2)cc1,13.1

row,SMILES,"hERG current change (%, negative = inhibition) at 10uM [%]"
1,CCc1cccc(N(C(=O)c2csnn2)C(C(=O)NC(C)(C)C)c2ccccn2)c1 (stereo not shown),1.65
2,CCCCNc1nc2ccccc2nc1NS(=O)(=O)c1cccs1,6.48
3,CCOc1ccccc1C(=O)Nc1ccc(S(=O)(=O)Nc2nccc(C)n2)cc1,2.82
4,C#Cc1ccc(C(=O)NCc2ccc(N3CCCC3=O)cc2)cc1,20.2
5,CCCc1cc(=O)oc2cc(OCC(=O)N3C[C@H]4C[C@@H](C3)c3cccc(=O)n3C4)ccc12,5.55
6,Cc1nnc(Sc2nc3ccccc3o2)c2ccccc12,5.85
7,COc1ccc(CCNC(=O)C2CCC(=O)N(C3CCCCCC3)C2)cc1 (stereo not shown),8.9
8,O=C(Cn1c(=O)oc2ccccc21)Nc1ccccc1Cl,14.1
9,CC(C)(C)C(=O)NC1=NN(c2c(Cl)cc(Cl)cc2Cl)C(=O)C1,21.9
10,O=S(=O)(c1ccc2nc(SCc3ccc(Cl)cc3)[nH]c2c1)N1CCOCC1,-24
11,CN(CC(=O)NCCCN1CCOCC1)S(=O)(=O)c1cc(Cl)ccc1Cl,-14.8
12,CC(CCc1ccccc1)NC(=O)CN(C)Cc1ccccc1F (stereo not shown),-36.4
13,C=CCNC(=S)Nc1ccc(Cl)c(S(=O)(=O)N2CCOCC2)c1,13.2
14,C=CCC1(O)C(=O)N2C(=C1C(=O)OCC)c1ccc3ccccc3c1CC2(C)C (stereo not shown),2.23
15,Cc1c(-n2c(-c3ccccc3)nc3ccccc3c2=O)c(=O)n(-c2ccccc2)n1C,0.536
16,O=C(Cc1ccccc1)NC1CCSc2ccccc21 (stereo not shown),12
17,COc1cc(-c2n[nH]c(=S)n2-c2ccc(C)cc2)cc(OC)c1OC,18.3
18,O=C(N/N=C/c1c(O)n(-c2ccc(Cl)cn2)c(=O)c2ccccc12)c1ccncc1,23.2
19,O=C(NCCCc1ccncc1)C1CCC(=O)N(Cc2cccc(F)c2)C1 (stereo not shown),-14.5
20,Cl.O=C(NCCCN1CCOCC1)c1ccc(CSc2ccc(Cl)cc2)cc1,-59.2
21,CC1CCc2c(sc3ncn(CC(=O)N=Nc4c(O)[nH]c5ccccc45)c(=O)c23)C1 (stereo not shown),-29.8
22,Clc1ccc2c(c1)C(C1=NCCN1)c1ccccc1CS2.O=C(O)/C=C\C(=O)O (stereo not shown),-8.02

row,SMILES,"hERG current change (%, negative = inhibition) at 10uM [%]"
1,Br.CC(C)(C)c1ccc(CN2C3=NCCCN3c3ccccc32)cc1,-77.6
2,O=C(Nc1cnn(Cc2ccc(Cl)c(Cl)c2)c1)c1nc2ncccn2n1,-5.27
3,COc1ccc(-c2ccc(CCC(=O)O)n2CC(=O)Nc2ccccc2C)cc1,17.8
4,O=C(NC1CCCCC1)C1CCCN(S(=O)(=O)c2ccc(Br)s2)C1 (stereo not shown),17.1
5,CN1CCN(c2ccccc2NC(=O)Cc2cn(C)c3ccccc23)CC1,-59.5
6,CCN(CC)c1ccc(/C=C(/C#N)C(=O)NCc2ccccc2)o1,2.6
7,CCN=C1SC(CC(=O)Nc2ccc(N3CCOCC3)cc2)C(=O)N1CC (stereo not shown),12.2
8,COc1ccc(-c2ccc(CCC(=O)O)n2-c2ccccc2OC)cc1,0.474
9,O=C(CN1CCCCC1)n1c2ccccc2c2ccccc21,-16.3
10,CCOC(=O)/C=C1\CN(Cc2cc(OC)c(OC)c(OC)c2)S(=O)(=O)c2ccccc21,-6.93
11,O=C(Nc1ccc(Cl)cc1)Nc1ccccc1Sc1ncc([N+](=O)[O-])s1,15.4
12,O=C(/C(=N/O)n1cncn1)c1ccccc1Cl,12.9
13,Cc1noc(/C=C/N(C)C)c1S(=O)(=O)N1CCCC(C(=O)NCc2cccs2)C1 (stereo not shown),1.93
14,CN(C(=O)CSc1nnc(C(F)(F)F)n1N)C1CCS(=O)(=O)C1 (stereo not shown),7.42
15,NNC(=O)COc1cccc(C(F)(F)F)c1,35.7
16,CCC(=O)NC(=S)Nc1ccccc1C(=O)OC,16.9
17,CC1(C(=O)OCC(=O)Nc2ccccc2Cl)CC1(Cl)Cl (stereo not shown),-15.3
18,O=C(N/N=C/c1ccncc1)c1ccccc1,0.899
19,CCOC(=O)c1cn2nc(Oc3ccc(C)cc3)ccc2n1,1.97
20,CCOc1ccc(NC(=O)CN2CCN(CC(=O)Nc3ccc4c(c3)OCO4)CC2)cc1,-76.1
21,Clc1ccc(OCCn2c(-c3ccco3)nc3ccccc32)cc1,-26.7
22,CCc1noc(C)c1C(=O)N(C)CC(=O)Nc1ccc(OC)cc1,4.33

row,SMILES,"hERG current change (%, negative = inhibition) at 10uM [%]"
1,O=C(CC1C(=O)NCCN1C(=O)Nc1ccc(Cl)cc1)Nc1ccc(F)cc1 (stereo not shown),-32.9
2,C=C1CCN([C@H](C(=O)OCc2ccc(C)cc2)C(C)C)S(=O)(=O)c2ccccc21,-7.72
3,CCc1ccccc1NC(=O)CNC(=O)CNC(=O)C1CCCCC1,12.7
4,COC(=O)C1=C(N)OC2=C(C(=O)CC(C)(C)C2)C1c1ccoc1 (stereo not shown),-6.08
5,O=C(COc1ccc(Br)cc1Br)NC1CCCC1,12.9
6,CN(C)S(=O)(=O)c1ccc(N)c([N+](=O)[O-])c1,15
7,O=C(NCc1cccc(Br)c1)C1CC2Cn3c(nc4ccccc43)C2N1Cc1ccccc1 (stereo not shown),-74.2
8,CC1(C)Cc2cccc(C(=O)Nc3ccc(F)cc3F)c2O1,21.6
9,Cc1nn(Cc2c(Cl)cccc2Cl)c(Cl)c1/C=N/NC(=O)c1cccnc1,8.86
10,CCOc1cc(N2CCOCC2)c(OCC)cc1NC(=O)CN1CCCC(C)C1 (stereo not shown),-25.8
11,O=C(C1CCC(=O)N1C1CCCCC1)N1CCN(c2ccc(F)cc2)CC1 (stereo not shown),-14.1
12,Nc1nc2ccccc2[nH]1,15.9
13,O=C(CN1CCOCC1)Nc1ccccc1Cl,-8.73
14,CCCc1nc2ccccc2c(=O)n1/N=C/c1ccc(O)cc1,14.5
15,CC(C)(C)N(NC(=O)c1ccccc1)C(=O)c1ccccc1,-1.27
16,O=C(COc1ccccc1Cl)Nc1cc(NC(=O)COc2ccccc2Cl)cc(C(=O)O)c1,-0.786
17,Nc1nc2cc(S(=O)(=O)NC3=NCCCCC3)ccc2s1,7.55
18,COc1cccc(C(=O)C2CCCN(Cc3ccc4nsnc4c3)C2)c1 (stereo not shown),-26
19,O=c1[nH]ncn2cccc12,24.1
20,O=C(C1=C(O)C(=O)N(c2nc3ccc(Cl)cc3s2)C1c1ccco1)c1ccco1 (stereo not shown),-3.5
21,CC(C)CN(C(=O)CN1CCN(c2ccc(F)cc2)CC1)c1c(N)n(CC(C)C)c(=O)[nH]c1=O,0.793
22,Cc1ccc(Cn2c(NC(=O)c3ccco3)nc3ccccc32)cc1,19.8
